Experimental data: patent publication US20230242633A1 (KANAPH THERAPEUTICS, published 2023)
Like-named read-outs stand apart in the source and are kept apart here.

T1: human VEGF165 (human, UniProt P15692-4 27-191)
T1 construct: also called human VEGF165 protein
T1 sequence (looked up): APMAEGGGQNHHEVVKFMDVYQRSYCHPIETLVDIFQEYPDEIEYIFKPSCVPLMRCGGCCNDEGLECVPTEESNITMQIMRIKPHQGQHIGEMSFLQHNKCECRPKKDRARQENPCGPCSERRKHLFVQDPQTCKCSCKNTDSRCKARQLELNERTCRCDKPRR

T2: human C2 (human, UniProt P06681 21-752)
T2 sequence (looked up): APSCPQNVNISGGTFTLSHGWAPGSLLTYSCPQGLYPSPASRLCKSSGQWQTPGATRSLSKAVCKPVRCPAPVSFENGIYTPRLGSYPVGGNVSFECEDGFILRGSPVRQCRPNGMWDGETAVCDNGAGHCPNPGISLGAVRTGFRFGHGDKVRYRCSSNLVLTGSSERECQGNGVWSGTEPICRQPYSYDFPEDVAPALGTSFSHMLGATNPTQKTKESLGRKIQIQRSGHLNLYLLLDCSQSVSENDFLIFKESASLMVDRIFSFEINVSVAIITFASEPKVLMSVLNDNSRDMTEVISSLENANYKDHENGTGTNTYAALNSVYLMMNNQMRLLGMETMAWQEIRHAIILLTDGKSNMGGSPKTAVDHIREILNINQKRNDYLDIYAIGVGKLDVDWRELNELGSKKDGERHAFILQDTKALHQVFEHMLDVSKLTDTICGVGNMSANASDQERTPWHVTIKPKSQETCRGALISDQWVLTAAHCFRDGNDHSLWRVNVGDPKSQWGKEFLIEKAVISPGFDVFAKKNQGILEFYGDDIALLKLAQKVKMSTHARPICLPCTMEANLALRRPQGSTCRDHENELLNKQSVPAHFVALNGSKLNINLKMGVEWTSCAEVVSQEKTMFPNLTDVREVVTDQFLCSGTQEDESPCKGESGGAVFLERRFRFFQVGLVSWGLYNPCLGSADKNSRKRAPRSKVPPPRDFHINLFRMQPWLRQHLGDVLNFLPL


How the values were obtained:
[1] = biological target: VEGF (as added in the reporter cell assay and the wound healing assay); assay: cell-based or functional assay
[2] = biological target: T1, human VEGF165; assay: ELISA, human VEGF165 immobilised on the plate, detection by anti-human IgG
Source text: Specifically, a human VEGF165 protein was immobilized on a plate, and C1.02, C1.04, and C1.05, and aflibercept and hIgG1 as controls were bound thereto. Next, an anti-human immunoglobulin G antibody and an anti-horseradish peroxidase (HRP) antibody were sequentially bound thereto.

[3] = biological target: T3, human C3b (human, UniProt P01024 23-667; P01024 in part, limits assumed); assay: SPR (Biacore 8K), fusion captured on anti-human IgG (Fc) CM5 chip, C3b as analyte, 1:1 model
T3 construct: C3b is its cleaved fragment; also called human Cb3
Method: (§1) A C3b stock solution was diluted to 50 nM using a 1×HBS-EP+ buffer. Human VEGF165 was diluted to 5 nM using a 1×HBS-EP+ buffer. The 50 nM and 5 nM solutions were then diluted to 0.78125 nM and 0.078125 nM. In the sample step, the diluted antigens were injected into the flow cells at a rate of 30 μL/min. Two 0 nM antigens (1×HBS-EP+ buffer) were used and removed from the reference signal. Binding for 180 seconds and separation for 400 seconds were performed. After the separation time, a stabilization step for 60 seconds was performed. In the regeneration step, 10 mM glycine (pH 1.5) was injected into the flow cells at a rate of 30 μL/min for 30 seconds, followed by a stabilization step for 60 seconds.
(§2) After subtracting the reference and 0 nM values from the sample values, binding kinetics were calculated using Biacore Insight Evaluation Software (Version 2.0.15.12933) and 1:1 binding model for curved fitting.

[4] = biological target: T3, human C3b; assay: direct binding ELISA (rising curve), human C3b immobilised on the plate; the sheet labels the half-maximal value IC50
T3 sequence (P01024 23-667 limits assumed, chain 1 of 2): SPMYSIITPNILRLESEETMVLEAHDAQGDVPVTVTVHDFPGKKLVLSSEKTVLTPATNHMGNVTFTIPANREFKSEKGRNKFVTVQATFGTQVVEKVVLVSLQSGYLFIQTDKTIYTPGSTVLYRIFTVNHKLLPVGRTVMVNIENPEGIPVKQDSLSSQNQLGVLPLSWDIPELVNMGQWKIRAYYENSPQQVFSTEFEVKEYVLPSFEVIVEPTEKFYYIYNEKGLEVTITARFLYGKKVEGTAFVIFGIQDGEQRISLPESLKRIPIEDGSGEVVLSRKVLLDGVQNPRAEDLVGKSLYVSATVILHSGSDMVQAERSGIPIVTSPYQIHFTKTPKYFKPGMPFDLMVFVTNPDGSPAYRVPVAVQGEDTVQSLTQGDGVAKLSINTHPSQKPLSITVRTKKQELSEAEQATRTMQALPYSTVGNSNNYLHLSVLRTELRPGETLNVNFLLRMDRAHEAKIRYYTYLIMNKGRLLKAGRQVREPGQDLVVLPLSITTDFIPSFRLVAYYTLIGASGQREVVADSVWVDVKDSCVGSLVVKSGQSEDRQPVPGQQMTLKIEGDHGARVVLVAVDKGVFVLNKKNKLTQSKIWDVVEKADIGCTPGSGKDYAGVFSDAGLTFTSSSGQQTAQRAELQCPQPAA
T3 sequence (P01024 749-1663 limits assumed, chain 2 of 2): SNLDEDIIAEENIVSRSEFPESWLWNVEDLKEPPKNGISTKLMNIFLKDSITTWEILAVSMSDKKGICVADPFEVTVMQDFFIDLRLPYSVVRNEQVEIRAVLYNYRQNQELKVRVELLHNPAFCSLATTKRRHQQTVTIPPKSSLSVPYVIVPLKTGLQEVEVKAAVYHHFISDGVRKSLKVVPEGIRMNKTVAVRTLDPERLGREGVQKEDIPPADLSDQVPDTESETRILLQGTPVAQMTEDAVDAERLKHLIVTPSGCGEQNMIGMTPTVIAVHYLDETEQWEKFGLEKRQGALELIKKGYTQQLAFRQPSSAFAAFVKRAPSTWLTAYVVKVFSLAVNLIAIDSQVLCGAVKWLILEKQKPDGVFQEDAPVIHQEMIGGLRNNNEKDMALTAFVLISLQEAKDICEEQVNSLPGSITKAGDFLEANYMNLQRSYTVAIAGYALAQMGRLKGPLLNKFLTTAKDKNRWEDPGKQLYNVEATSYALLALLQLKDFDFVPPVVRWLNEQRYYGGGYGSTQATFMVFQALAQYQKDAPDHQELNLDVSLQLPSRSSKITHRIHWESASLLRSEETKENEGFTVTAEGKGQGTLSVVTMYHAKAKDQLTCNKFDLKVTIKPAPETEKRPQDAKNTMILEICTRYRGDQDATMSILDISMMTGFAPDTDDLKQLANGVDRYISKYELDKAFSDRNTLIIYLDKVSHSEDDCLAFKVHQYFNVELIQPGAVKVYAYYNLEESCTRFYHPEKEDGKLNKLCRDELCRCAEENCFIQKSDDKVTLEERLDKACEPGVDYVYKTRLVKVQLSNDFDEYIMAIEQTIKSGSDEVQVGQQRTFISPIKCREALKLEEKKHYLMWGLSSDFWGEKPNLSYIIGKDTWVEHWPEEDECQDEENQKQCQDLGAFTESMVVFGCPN
Source text: (§3) The binding ability of C3b of a human and a cynomolgus monkey to C1.02, the binding ability of C3b of a human and a cynomolgus monkey to C1.06, the binding ability of the VEGFs of a human, a cynomolgus monkey, a rat, and a rabbit to C1.02, and the binding ability of the VEGFs of a human, a cynomolgus monkey, a rat, and a rabbit to C1.01 were confirmed through ELISA. Specifically, the C3b or VEGF of a human, a cynomolgus monkey, a rat, or a rabbit was immobilized on a plate, and C1.01, C1.02, or C1.06 was bound thereto. Next, an anti-human immunoglobulin G antibody and an anti-horseradish peroxidase (HRP) antibody were sequentially bound thereto.

[5] = biological target: T3, human C3b; assay: as above; remark: listed apart in the source
Source text: as §3

[6] = biological target: T3, human C3b; assay: ELISA, human C3b immobilised on the plate, detection by anti-human IgG
Source text: (§4) Specifically, a human C3b protein was immobilized on a plate, and C1.01, C1.02, C1.03, and C1.04, and hIgG1 as a control were bound thereto. Next, an anti-human immunoglobulin G antibody and an anti-horseradish peroxidase (HRP) antibody were sequentially bound thereto. Moreover, a mouse C3b protein was immobilized on a plate, and C1.01m to C1.03m containing mouse CRIg were bound to mouse C3b.

[7] = biological target: T2, human C2; assay: ELISA, human C2 immobilised on the plate, C1.02 added, detection by anti-human IgG
Source text: Specifically, the human Cb3, C2, or C4 protein was immobilized on a plate, and C1.02 was bound thereto. Next, an anti-human immunoglobulin G antibody and an anti-horseradish peroxidase (HRP) antibody were sequentially bound thereto.

[8] = biological target: T4, cynomolgus monkey C3b (cynomolgus monkey); assay: direct binding ELISA (rising curve), cynomolgus C3b immobilised on the plate; the sheet labels the half-maximal value IC50
T4 construct: also called C3b of a cynomolgus monkey
Source text: as §3

[9] = biological target: T1, human VEGF165; assay: SPR (Biacore 8K), fusion captured on anti-human IgG (Fc) CM5 chip, human VEGF165 as analyte, 1:1 model
Method: as §1, §2

[10] = biological target: rabbit C3b (rabbit, UniProt P12247 1-726); assay: direct binding ELISA (rising curve), rabbit C3b immobilised on the plate; the sheet labels the half-maximal value IC50
[11] = biological target: T3, human C3b; assay: ELISA, human C3b immobilised on the plate, detection by anti-human IgG; the curve has no upper plateau in the range shown
Source text: as §4

Chain of rabbit C3b (P12247 whole entry): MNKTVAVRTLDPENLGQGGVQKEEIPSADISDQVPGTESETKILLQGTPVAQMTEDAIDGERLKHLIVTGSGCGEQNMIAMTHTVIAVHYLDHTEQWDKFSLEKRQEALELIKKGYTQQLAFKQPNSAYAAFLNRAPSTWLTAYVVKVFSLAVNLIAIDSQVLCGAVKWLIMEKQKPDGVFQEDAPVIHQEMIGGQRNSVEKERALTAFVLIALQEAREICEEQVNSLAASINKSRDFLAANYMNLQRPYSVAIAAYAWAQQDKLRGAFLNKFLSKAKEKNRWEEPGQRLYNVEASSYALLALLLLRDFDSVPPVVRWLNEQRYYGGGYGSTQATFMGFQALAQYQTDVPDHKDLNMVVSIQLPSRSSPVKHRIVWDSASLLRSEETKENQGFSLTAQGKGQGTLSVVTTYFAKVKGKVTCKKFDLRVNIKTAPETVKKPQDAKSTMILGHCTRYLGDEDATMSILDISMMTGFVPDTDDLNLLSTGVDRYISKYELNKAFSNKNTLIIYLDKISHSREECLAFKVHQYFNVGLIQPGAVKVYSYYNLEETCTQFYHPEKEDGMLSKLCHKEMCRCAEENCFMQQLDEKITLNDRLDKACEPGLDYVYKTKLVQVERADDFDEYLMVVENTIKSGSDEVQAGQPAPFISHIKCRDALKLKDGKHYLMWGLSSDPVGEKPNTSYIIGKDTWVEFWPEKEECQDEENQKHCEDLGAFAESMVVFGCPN

Binder | IC50 (VEGF reporter cell luminescence) [1] [nM] | EC50 [2] [µg/mL] | Kd [3] [nM] | koff [3] [s⁻¹] | kon [3] [M⁻¹ s⁻¹] | EC50 [6] [µg/mL] | EC50 [11] [µg/mL] | also measured
C1.02 (hu CRIg-hu IgG1 Fc DANG-VEGF binder) (Fc fusion) [not shown - about 120 residues]LSVSKPTVTTGSGYGFTVPQGMRISLQCQARGSPPISYIWYKQQTNNQEPIKVATLSTLLFKPAVIADSGSYFCTAKGQVGSEQHSDIVKFVVKDSSKLLKTKTEAPTTMTYPLKATSTVKQSWDWTTDMDGYLGETSAGPGKSLPGGGGSDKTHTCPPCPAPELLGGPSVFLFPPKPKDTLMISRTPEVTCVVVAVSHEDPEVKFNWYVDGVEVHNAKTKPREEQYGSTYRVVSVLTVLHQDWLNGKEYKCKVSNKALPAPIEKTISKAKGQPREPQVYTLPPSRDELTKNQVSLTCLVKGFYPSDIAVEWESNGQPENNYKTTPPVLDSDGSFFLYSKLTVDKSRWQQGNVFSCSVMHEALHNHYTQKSLSLSPGGGGGSGGGGSSDTGRPFVEMYSEIPEIIHMTEGRELVIPCRVTSPNITVTLKKFPLDTLIPDGKRIIWDSRKGFIISNATYKEIGLLTCEATVNGHLYKTNYLTHRQTNTIIDVVLSPSHGIELSVGEKLVLNCTARTELNVGIDFNWEYPSSKHQHKKLVNRDLKTQSGSEMKKFLSTLTIDGVTRSDQGLYTCAASSGLMTKKNSTFVRVHEK | 3.07 | 0.033 | 4.34 | 0.0159 | 3.66e+06 | 0.399 | – | IC50 [4]: 0.102 nM; IC50 [5]: 1.42 nM; binding result [7]: no binding (tested: 50 ng/mL); IC50 [8]: 0.129 nM; Kd [9]: 0.0628 nM; koff [9]: 0.000247 s⁻¹; kon [9]: 3.94e+06 M⁻¹ s⁻¹; IC50 [10]: 39.1 nM
C1.01 (hu CRIg-hu IgG1 Fc DANG) (Fc fusion, also called CRIg-Fc) [not shown - about 120 residues]LSVSKPTVTTGSGYGFTVPQGMRISLQCQARGSPPISYIWYKQQTNNQEPIKVATLSTLLFKPAVIADSGSYFCTAKGQVGSEQHSDIVKFVVKDSSKLLKTKTEAPTTMTYPLKATSTVKQSWDWTTDMDGYLGETSAGPGKSLPGGGGS[not shown - human IgG1 Fc with changes] | – | – | 3.47 | 0.0121 | 3.47e+06 | 0.191 | – | –
C1.03 (hu IgG1 Fc DANG-hu CRIg) (Fc fusion) [not shown - about 250 residues][not shown - about 120 residues]LSVSKPTVTTGSGYGFTVPQGMRISLQCQARGSPPISYIWYKQQTNNQEPIKVATLSTLLFKPAVIADSGSYFCTAKGQVGSEQHSDIVKFVVKDSSKLLKTKTEAPTTMTYPLKATSTVKQSWDWTTDMDGYLGETSAGPGKSLPG | – | – | – | – | – | – | 5.03 | –

Now from value to binder, other results behind:

IC50 (VEGF reporter cell luminescence) [1] [nM] | EC50 [2] [µg/mL] | Kd [3] [nM] | koff [3] [s⁻¹] | kon [3] [M⁻¹ s⁻¹] | EC50 [6] [µg/mL] | EC50 [11] [µg/mL] | Binder | also measured
1.83 | 0.026 | – | – | – | – | – | Aflibercept (Fc fusion, also called Eylea) SDTGRPFVEMYSEIPEIIHMTEGRELVIPCRVTSPNITVTLKKFPLDTLIPDGKRIIWDSRKGFIISNATYKEIGLLTCEATVNGHLYKTNYLTHRQTNTIIDVVLSPSHGIELSVGEKLVLNCTARTELNVGIDFNWEYPSSKHQHKKLVNRDLKTQSGSEMKKFLSTLTIDGVTRSDQGLYTCAASSGLMTKKNSTFVRVHEK[not shown - human IgG1 Fc] | –
1.68 | 0.02 | – | – | – | – | – | C1.05 (VEGF binder-hu IgG1 Fc DANG) (Fc fusion) SDTGRPFVEMYSEIPEIIHMTEGRELVIPCRVTSPNITVTLKKFPLDTLIPDGKRIIWDSRKGFIISNATYKEIGLLTCEATVNGHLYKTNYLTHRQTNTIIDVVLSPSHGIELSVGEKLVLNCTARTELNVGIDFNWEYPSSKHQHKKLVNRDLKTQSGSEMKKFLSTLTIDGVTRSDQGLYTCAASSGLMTKKNSTFVRVHEKGGGGS[not shown - human IgG1 Fc with changes] | –
– | 0.039 | – | – | – | – | 7.74 | C1.04 (VEGF binder-hu IgG1 Fc DANG-hu CRIg) (Fc fusion) SDTGRPFVEMYSEIPEIIHMTEGRELVIPCRVTSPNITVTLKKFPLDTLIPDGKRIIWDSRKGFIISNATYKEIGLLTCEATVNGHLYKTNYLTHRQTNTIIDVVLSPSHGIELSVGEKLVLNCTARTELNVGIDFNWEYPSSKHQHKKLVNRDLKTQSGSEMKKFLSTLTIDGVTRSDQGLYTCAASSGLMTKKNSTFVRVHEKGGGGSDKTHTCPPCPAPELLGGPSVFLFPPKPKDTLMISRTPEVTCVVVAVSHEDPEVKFNWYVDGVEVHNAKTKPREEQYGSTYRVVSVLTVLHQDWLNGKEYKCKVSNKALPAPIEKTISKAKGQPREPQVYTLPPSRDELTKNQVSLTCLVKGFYPSDIAVEWESNGQPENNYKTTPPVLDSDGSFFLYSKLTVDKSRWQQGNVFSCSVMHEALHNHYTQKSLSLSPGGGGGSGGGGS[not shown - about 120 residues]LSVSKPTVTTGSGYGFTVPQGMRISLQCQARGSPPISYIWYKQQTNNQEPIKVATLSTLLFKPAVIADSGSYFCTAKGQVGSEQHSDIVKFVVKDSSKLLKTKTEAPTTMTYPLKATSTVKQSWDWTTDMDGYLGETSAGPGKSLPG | –
